# Out of some 220,000 compounds screened, about 2,300 (1%) were called active. The shares of active, inactive and inconclusive entries below differ from those in the screen. Calls follow the shape of the dose curve; as a rule, active = well fitted inhibition curve with a large enough effect; inconclusive = small, poorly fitted or top-dose-only effect, or effect the other way; inactive = no such curve, though single readings can be large or run the other way. Potencies of inconclusive entries are left out as doubtful fits.
# Molecular target: Neuropeptide S receptor (Homo sapiens) (UniProt Q6W5P4)
# Sequence of UniProt Q6W5P4 (Q6W5P4 whole entry, looked up): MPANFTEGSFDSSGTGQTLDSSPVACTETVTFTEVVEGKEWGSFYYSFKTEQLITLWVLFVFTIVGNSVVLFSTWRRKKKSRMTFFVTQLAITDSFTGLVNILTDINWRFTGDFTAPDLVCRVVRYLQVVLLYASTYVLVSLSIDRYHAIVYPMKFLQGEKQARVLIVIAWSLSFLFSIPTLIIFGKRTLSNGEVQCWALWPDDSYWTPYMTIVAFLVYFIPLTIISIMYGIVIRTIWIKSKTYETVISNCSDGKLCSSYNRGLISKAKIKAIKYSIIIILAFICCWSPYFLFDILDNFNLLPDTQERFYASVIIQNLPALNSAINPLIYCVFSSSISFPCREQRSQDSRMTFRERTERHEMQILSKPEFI
# Assay: qHTS Assay for Antagonists of the Neuropeptide S Receptor: cAMP Signal Transduction; also: nearly all actives have a fitted effect of over 50% in size
# Conditions: CHO-NPSR cells, cAMP TR-FRET, antagonist mode; activity change, negative = inhibition: at 38.3 µM (top of the series) unless noted
# % is scaled to controls: 0 for no effect and ±100 for the full control effect; potency is read from the fitted curve at half-maximal effect; tags tell the direction and shape of the fitted curve.
SMILES,"activity change, negative = inhibition",Potency
Cc1nn(-c2nnc(NC3CCCCC3)nn2)c(C)c1Br,inactive: -26.7%,–
COc1ccccc1CC(=O)Nc1cc2oc3ccccc3c2cc1OC,–,"inconclusive [inhibitor, partial curve]"
CCC(NC(=O)N(Cc1ccccc1)Cc1ccc2c(c1)OCO2)(C(F)(F)F)C(F)(F)F,–,"inconclusive [inhibitor, single point]"
COc1cccc(NC(=O)C2CCCN2C(=O)Nc2cccc(F)c2)c1 (configuration not stated),–,"inconclusive [activator, single point]"
COC(=O)c1c(NC(=O)c2ccccc2)sc(C(N)=O)c1C,–,"inconclusive [activator, partial curve]"
Cc1ccc2[nH]c(=O)c(CN(CCc3ccccc3)C(c3nnnn3Cc3ccco3)C(C)C)cc2c1 (configuration not stated),inactive: -59.2%,–
CCCOc1cccc(C(=O)NC(=S)Nc2cccc(C(F)(F)F)c2)c1,–,"inconclusive [inhibitor, single point]"
O=C(Cn1c(COc2ccccc2)nc2ccccc21)Nc1cc(Cl)cc(Cl)c1,inactive: -17.4%,–
CCCCNC(=O)Nc1c(C(=O)OCC)[nH]c2ccccc12,–,"inconclusive [inhibitor, partial curve]"
COc1ccccc1-c1nnc(SC(C(=O)c2c[nH]c3ccccc23)c2ccccc2)n1C (configuration not stated),–,"inconclusive [inhibitor, single point]"
Nc1ccc2c(c1)C(=O)C(=O)c1ccccc1-2,–,active: 10 µM
COc1ccc(OC)c(S(=O)(=O)Nc2cc(OC)c(Cl)cc2OC)c1,–,"inconclusive [inhibitor, single point]"
CN(C)c1ccc(N=c2sc3ccccc3n2C)cc1,–,"inconclusive [inhibitor, single point]"
O=C(Nc1ccc(Cl)c(Cl)c1)N1CC=CCC1,–,"inconclusive [activator, partial curve, poor fit]"
CC(C)CCNc1nc(N2CCCC2)c2c(c1C#N)CCN(C)C2,–,"inconclusive [inhibitor, single point]"
CC(NC(=O)CSc1nc2sc3c(c2c(=O)n1-c1ccccc1)CCCC3)c1ccccc1 (configuration not stated),–,"inconclusive [activator, full curve, poor fit]"
CC(C)c1cc(-c2cc(C(=O)NCc3ccccc3)on2)nc(NCC2CC2)n1,–,"inconclusive [inhibitor, single point]"
CCOC(=O)C1CCCN(C(=O)c2cc(Nc3ccc(OC)cc3OC)nc3ccccc23)C1 (configuration not stated),–,"inconclusive [inhibitor, single point]"
CC(C)CCN=Cc1c(O)n(-c2ccccc2)c(=O)c2ccccc12,–,"inconclusive [inhibitor, single point]"
CC1(C)CC(=O)C2=C(C1)OC(N)=C(C#N)C21C(=O)N(Cc2ccccc2Cl)c2ccccc21 (configuration not stated),–,"inconclusive [inhibitor, single point]"
Cc1nn(-c2ccccn2)c2nc(-c3cccs3)cc(C(=O)NCc3ccco3)c12,–,"inconclusive [inhibitor, single point]"
NNC(=O)CCN(Cc1ccco1)S(=O)(=O)c1ccc(Cl)cc1,inactive: -9.8% [at 7.67 µM],–
CC(C)c1ccc(N2C=Nc3ccc(C(C)C)cc3C2)cc1,–,active: 7.94 µM

SMILES,"activity change, negative = inhibition",Potency
O=C(NCc1ccc2c(c1)OCO2)c1ccc(N2C(=O)C3CCCCC3C2=O)cc1 (configuration not stated),–,"inconclusive [inhibitor, single point]"
CCCOC1(NC(=O)c2ccccc2)C(C)=CC(=O)C=C1C,inactive: -9.97% [at 46.1 µM],–
CCOC(=O)C1=C(C)N=C(SC)N(C)C1c1ccccc1 (configuration not stated),–,"inconclusive [inhibitor, single point]"
CC(=O)Nc1ccc(S(=O)(=O)N(C)Cc2ccccc2)cc1,inactive: 2.13%,–
O=S(=O)(Nc1cc(Sc2cccc3cccnc23)c(O)c2ccccc12)c1ccc(F)cc1,inactive: -7.21%,–
Cc1nc(N(C)C)c2sc(=S)n(C)c2n1,inactive: 9.94% [at 46.1 µM],–
COc1ccccc1NC(=O)CC1C(=O)NCCN1C(=O)Nc1ccc(Cl)c(Cl)c1 (configuration not stated),–,"inconclusive [inhibitor, single point]"
CNS(=O)(=O)c1cccc2nsnc12,inactive: 0.944% [at 46.1 µM],–
Cc1cccc(N2CCN(C(=O)c3c(C)nn(Cc4ccccc4Cl)c3C)CC2)c1C,–,"inconclusive [inhibitor, single point]"
CCCCC1(Cc2cccc([N+](=O)[O-])c2)C(=O)N(c2ccccc2)N(c2ccccc2)C1=O,–,"inconclusive [inhibitor, full curve]"
N/C(Cc1ccc([N+](=O)[O-])cc1)=N\OC(=O)COc1cccc2ccccc12,–,"inconclusive [inhibitor, partial curve]"
CCCOC(=O)c1ccc(Oc2cn[nH]c2-c2ccc(OC)cc2O)cc1,–,"inconclusive [inhibitor, single point]"
Cc1nn(-c2ccccc2)c2c1C(c1ccncc1)C(C#N)=C(N)O2 (configuration not stated),inactive: -18.2% [at 46.1 µM],–
O=[N+]([O-])c1ccc(NC(=S)N/C(=N/CS(=O)(=O)c2ccccc2)c2ccccc2)cc1,–,"inconclusive [inhibitor, single point]"
COc1ccc(CNC(=O)c2cc3c(C)nc4ccccc4c3o2)c(OC)c1,–,"inconclusive [inhibitor, single point]"
COc1ccccc1Nc1nc2ccccc2[nH]1,–,"inconclusive [activator, partial curve]"
CC1CC(C)CN(C(=O)c2ccccc2Nc2ccc(SC(F)F)cc2)C1 (configuration not stated),–,"inconclusive [inhibitor, single point]"
COc1ccc(/C=N/NC(=S)Nc2ccccc2)cc1,–,"inconclusive [activator, full curve, poor fit]"
Cn1cc([C@@H]2C[C@H]3CN(Cc4cccc(Cl)c4)C(=O)[C@]34CCCN24)c(-c2ccccc2)n1,inactive: -1.32%,–
CCn1c(=NC(=O)CSC(C)=O)sc2cc(OC)ccc21,–,"inconclusive [inhibitor, partial curve]"
Cc1ccc2nc(SC(C)C(=O)NCc3ccco3)[nH]c2c1 (configuration not stated),–,"inconclusive [inhibitor, single point]"
CCOC(=O)c1c(NC(=O)C2c3ccccc3Oc3ccccc32)sc(C(=O)N(CC)CC)c1C,–,"inconclusive [inhibitor, partial curve, poor fit]"
C=CCNC(=S)N/N=C/c1ccc(-c2ccc(OC)cc2)o1,inactive: -31.4%,–

SMILES,"activity change, negative = inhibition",Potency
CCOC(=O)c1c(NC(=O)CSc2nc3cccnc3n2C)sc(C(C)=O)c1C,–,"inconclusive [inhibitor, partial curve]"
Cc1onc(-c2ccccc2Cl)c1C(=O)NC(=S)Nc1ccc(C(C)(C)C)cc1,inactive: -37.9%,–
O=C1C(=O)c2ccccc2C(O)=C1c1cccc([N+](=O)[O-])c1,–,"inconclusive [activator, partial curve]"
Cc1cccc(-n2ncc3c(Nc4ccc(F)cc4)ncnc32)c1,–,"inconclusive [inhibitor, partial curve]"
CC(C)c1ccc(/C=C/C(=O)n2nnc3ccccc32)cc1,–,"inconclusive [inhibitor, single point]"
CCN(CC)C(=O)CSc1nc2c(sc(=S)n2CC)c(=O)n1-c1ccccc1,inactive: -28% [at 46.1 µM],–
c1ccc(-c2ncc3ccccn23)cc1,inactive: -5.38%,–
O=C(/C=C/c1ccc(-c2ccccc2)o1)c1ccccc1,–,"inconclusive [inhibitor, single point]"
CC1OC(OC2C(OC3C(O[C@H]4CC[C@]5(C)C6C=C[C@]78OC[C@@]9(CC[C@@H](C)[C@H](C)C97)[C@H](O)C[C@@]8(C)[C@]6(C)CC[C@H]5C4(C)C)OC(C)C(O)C3O)OC(CO)C(O)C2O)C(O)C(O)C1O (some centres not stated),–,"inconclusive [inhibitor, single point]"
Cc1ccc2nc3c(c(Nc4ccccc4)c2c1)CCC3,–,"inconclusive [activator, partial curve]"
S=C(NCc1ccco1)Nc1ccc(Oc2ccc(Cl)cc2)cc1,–,"inconclusive [activator, single point]"
COc1ccc(C(=O)/C=C/C(=O)N(CC(=O)NC2CCCCC2)Cc2ccc(F)cc2)c(O)c1,–,"inconclusive [activator, partial curve]"
Cc1ccc2occ(/C=N/NC(N)=S)c(=O)c2c1,inactive: -15.4% [at 46.1 µM],–
CCN(CC)c1ccc(/C=C(\C#N)C(N)=S)cc1,–,"inconclusive [inhibitor, single point]"
CCOC(=O)c1ccccc1NC(=O)c1ccccc1SC,–,"inconclusive [inhibitor, single point]"
Cc1ccc(C)c(CN2C(=O)C3CCCN3c3ccc(C#N)cc32)c1 (configuration not stated),–,"inconclusive [inhibitor, single point]"
COc1ccc(NC(=O)c2csc3c2CCCCC3)c(OC)c1,–,"inconclusive [inhibitor, single point]"
CC(=O)c1sc2c(c1OC(=O)c1ccc(Cl)cc1Cl)c(=O)n(-c1ccccc1)c(=S)n2-c1ccccc1,–,"inconclusive [activator, partial curve]"
Cc1nc2c(cnn2-c2ccccc2Cl)c(=O)n1-c1ccc(N2CCC(C)CC2)cc1,–,active: 12.6 µM
O=S(=O)(Nc1ccc(O)c(Sc2nc3ccccc3s2)c1)c1ccc(Cl)cc1,–,"inconclusive [inhibitor, partial curve]"
Cc1ccc(C2CC2c2n[nH]c(=S)n2-c2cccc(Cl)c2)cc1 (configuration not stated),inactive: -21.4%,–
